Where “and” joins values, the source holds several entries; their conditions need not be identical. Identical values can stand only once. In all, about 360,000 compounds went through this assay and about 25,000 (6.9%) were called active. This list was built around the results that the source calls inconclusive (neither active nor inactive); the mix of calls is not that of the screen. The call rests on the fitted dose curve; in most records, active means well fitted inhibition curve with a large enough effect; inconclusive means small, poorly fitted or top-dose-only effect; inactive means flat fitted curve, though single readings scatter. A potency beside an inconclusive call is a rough fit, not a confirmed value. Some structures have more than one record in an assay (separate samples or runs), and their calls can disagree.
target: Luciferin 4-monooxygenase (Photinus pyralis) (UniProt P08659); experiment: qHTS profiling assay for firefly luciferase inhibitor/activator using purifed enzyme and Km concentrations of substrates (counterscreen for miR-21 project); conditions: purified FLuc, luminescence inhibition; activity change, negative = inhibition: at 57.5 µM (top of the series); further: nearly all actives have a fitted effect of over 55% in size;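 on activity change, negative = inhibition: plate controls were vehicle for no effect and reference inhibitor for full effect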
Sequence of UniProt P08659 (P08659 whole entry, looked up): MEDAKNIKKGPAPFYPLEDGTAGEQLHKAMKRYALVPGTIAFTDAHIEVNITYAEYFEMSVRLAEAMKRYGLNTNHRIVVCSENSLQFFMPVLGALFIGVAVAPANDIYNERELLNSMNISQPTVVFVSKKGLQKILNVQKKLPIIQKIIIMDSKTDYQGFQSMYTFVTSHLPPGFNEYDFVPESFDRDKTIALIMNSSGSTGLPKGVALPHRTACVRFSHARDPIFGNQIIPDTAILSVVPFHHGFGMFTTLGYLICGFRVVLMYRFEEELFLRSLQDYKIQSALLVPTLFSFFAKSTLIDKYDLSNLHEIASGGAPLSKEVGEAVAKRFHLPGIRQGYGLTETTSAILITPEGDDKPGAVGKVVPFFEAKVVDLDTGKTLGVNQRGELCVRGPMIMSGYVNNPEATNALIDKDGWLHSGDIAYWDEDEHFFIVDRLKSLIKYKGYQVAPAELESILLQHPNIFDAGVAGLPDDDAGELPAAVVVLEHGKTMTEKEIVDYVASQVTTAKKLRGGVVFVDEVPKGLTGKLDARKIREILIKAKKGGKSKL
Method in brief: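 Purified P. pyralis luciferase (10nM final) with 10uM D-luciferin and 10uM ATP (Km levels) in 50mM Tris acetate pH 7.5, 10mM Mg acetate, 0.01% Tween-20, 0.05% BSA; qHTS 6-point titration, ~60 µM downward; luminescence read.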
Potency means the concentration at half of the fitted maximal effect; tags describe the fitted curve by direction and shape.

SMILES | Potency | activity change, negative = inhibition
COCCCN=C(c1ccco1)n1c(=S)nc(-c2ccco2)n(CCCOC)c1=S | inconclusive: 26.9 µM [inhibitor, partial curve, poor fit] | –
COC(=O)/C(=C/Nc1cccc2ccccc12)[N+](=O)[O-] | inconclusive: 37.9 µM [inhibitor, partial curve, poor fit] | –
COc1cc2[nH]c(C(=O)N3CCc4ccccc4C3)cc2c(OC)c1OC | inconclusive: 30.1 µM [inhibitor, partial curve, poor fit] | –
COCCn1c(N2CCN(c3ccc(OC)cc3)CC2)nc2c1c(=O)n(C)c(=O)n2C | – | inactive: -2.73%
Cc1nn(-c2ccccc2)c2sc(C(=O)Nc3cccc(O)c3)cc12 | inconclusive: 21.3 µM [inhibitor, single point] | –
COc1cc(CN(C(=O)COc2ccc(Cl)c(C)c2)c2ccccn2)cc(OC)c1OC | inconclusive: 26.9 µM [inhibitor, partial curve] | –
COC(=O)/C=C(\C)N=Nc1c(O)[nH]c2ccccc12 | active: 23.9 µM | –
CCn1c(-c2cc(-c3ccccc3OC)nc3ccccc23)n[nH]c1=S | – | inactive: 0.94%
Cc1cc(C)c2oc(-c3ccc(C)c(NC(=S)NC(=O)c4cccs4)c3)nc2c1 | inconclusive: 6.75 µM [inhibitor, partial curve] | –
CCOC(=O)CCS(=O)(=O)c1nc(-c2ccccc2)cc(C(F)(F)F)n1 | – | inactive: -1.77%
CCOCCCNC(=S)NCCc1ccccc1 | inconclusive: 16.9 µM [inhibitor, partial curve, poor fit] | –
CCOC(=O)Cc1csc(NC(=S)NC(=O)c2ccc(Cl)cc2)n1 | active: 12 µM | –
COc1ccccc1N1CCN(C(=O)CN(C)S(=O)(=O)c2cc(C)ccc2OC)CC1 | – | inactive: 2.83%
COc1ccc2sc(-c3ccc(SC)cc3)c(C#CC(C)(C)O)c2c1 | inconclusive: 4.26 µM [inhibitor, partial curve, poor fit] | –
COc1cc(OC)c(Nc2c3c(nc4nc(-c5cccs5)nn24)CCCC3)cc1Cl | active: 23.9 µM | –
COc1cccc(/C=C2\SC(=S)N(CCCC(=O)N3CCCCC3)C2=O)c1 | inconclusive: 19 µM [inhibitor, partial curve, poor fit] | –
Cc1cc(C)cc(NC(=O)C2CC3CCC2C3)c1 (centres undefined) | inconclusive: 37.9 µM [inhibitor, single point] | –
COc1cccc(C(=O)c2cc3ccc(O)cc3oc2=O)c1 | active: 12 µM | –
Cc1ccccc1-c1nnc(SCC(=O)N2CCCCC2)o1 | inconclusive: 37.9 µM [inhibitor, single point] | –
CCN(c1ccccc1)S(=O)(=O)c1nnc(NC(=O)c2ccco2)s1 | inactive and active: 213 nM | –
COc1cccc(C(=O)Nc2ccc(NC(=O)c3ccc(C(C)(C)C)cc3)cc2)c1 | – | inactive: 1.35%
Cc1cc(C)c2nc(NC(=O)c3ccc([N+](=O)[O-])o3)sc2c1 | inconclusive: 10.7 µM [inhibitor, partial curve, poor fit] | –
CN(CC(=O)Nc1ccccc1Br)C(=O)c1cccn1C | – | inactive: 1.16%
C/C(CCc1ccccc1)=N/NC(=O)C(=O)NCc1ccccc1 | – | inactive: 2.68%
CC(=O)Nc1ccc(NC(=O)CSc2nnc(C3CC3)n2-c2ccccc2)cc1 | – | inactive: 1.21%

SMILES | Potency | activity change, negative = inhibition
COc1ccccc1S(=O)(=O)NCc1ccc(C(=O)NC(C)c2ccccn2)cc1 (centres undefined) | – | inactive: 5.35%
CCc1ccccc1Nc1nn2c(=O)c3ccc(C(=O)NC4CCCCC4)cc3nc2s1 | – | inactive: -2.8%
Cc1ccc(NC(=O)CC2CCCC2)c(Br)c1 | active: 15.1 µM | –
O=C(N=Nc1c(O)[nH]c2ccccc12)c1ccc2c(c1)OCO2 | active: 0.601 µM | –
Cc1nc(-c2ccc3c(c2)OCO3)cs1 | active: 15.1 µM | –
NC(=O)c1ccccc1NC(=O)Nc1ccccc1Cl | inconclusive: 26.9 µM [inhibitor, single point] | –
O=C(NC1CCCC1)C(c1ccccn1)N(Cc1ccccc1F)C(=O)c1csnn1 (centres undefined) | – | inactive: 0.593%
CCOC(=O)c1c(N)n(-c2cccc(C)c2C)c2nc3ccccc3nc12 | – | inactive: -3.45%
Cc1cccc(/N=C/c2sc3ccccc3c2O)n1 | active: 0.478 µM | –
O=[N+]([O-])c1ccc(/C=C/c2nc3ccc([N+](=O)[O-])cc3[nH]2)cc1 | inconclusive: 2.69 µM [inhibitor, full curve] | –
O=C(O)c1cc(N/N=C/c2ccc(OCc3ccccc3)cc2)ccc1Cl | active: 6.75 µM | –
Cc1ccc(C(=O)CSc2nnc(COc3ccccc3)o2)cc1 | inconclusive: 37.9 µM [inhibitor, partial curve, poor fit] | –
COc1cc(NC(=O)C2CCCCC2)c(OC)cc1NC(=O)CN1CCCCC1 | inconclusive: 19 µM [inhibitor, partial curve, poor fit] | –
Cc1c(Cl)cccc1-c1ccc(/C=C(\C#N)c2nc3ccccc3[nH]2)o1 | inconclusive: 4.78 µM [inhibitor, partial curve, poor fit] | –
O=C(COC(=O)c1cc(Br)ccc1O)NCC1CCCO1 (centres undefined) | inconclusive: 8.49 µM [inhibitor, partial curve, poor fit] | –
Cc1cc(O)ccc1-c1cnc2ccccc2n1 | inconclusive: 16.9 µM [inhibitor, partial curve] | –
CCOc1cc(/C=C/C(=O)O)ccc1OCc1ccccc1 | inconclusive: 26.9 µM [inhibitor, partial curve, poor fit] | –
COc1ccc(C(=O)NCCn2ccc3ccccc32)cc1 | active: 10.7 µM | –
CC(/C=C/c1ccccc1)=N\NC(N)=S | inconclusive: 26.9 µM [inhibitor, single point] | –
Cc1ccc(C(=O)O/N=C2\CCS(=O)(=O)c3sccc32)cc1 | active: 0.478 µM | –
O=C(CCN1CCc2ccccc2C1)c1ccc2c(c1)OCCO2 | inconclusive: 21.3 µM [inhibitor, single point] | –
O=[N+]([O-])c1ccc(-c2ccc(/C=N/c3c(-c4ccco4)nc4ccccn34)o2)c(Cl)c1 | inconclusive: 9.53 µM [inhibitor, partial curve, poor fit] | –
CCC1=C/C(=C\c2ccc3c(c2)OCO3)C(=O)S1 | inconclusive: 16.9 µM [inhibitor, partial curve] | –
O=C(CCc1nnc(CCCCc2ccccc2)o1)N1CCCC(O)C1 (centres undefined) | – | inactive: -15.2%
O=C(Cn1ccc(C(F)(F)F)n1)N/N=C/c1ccc2c(c1)OCO2 | active: 19 µM | –

SMILES | Potency | activity change, negative = inhibition
O=C(CN1C(=O)NC2(CCCC2)C1=O)OCc1ccc(Cl)c(Cl)c1 | – | inactive: 1.28%
COc1ccc(N2CCN(C(=O)c3cnn(-c4ccc(OC)cc4)c3C3CCN(C(=O)OC(C)(C)C)CC3)CC2)cc1 | – | inactive: -1.93%
CCN(CC)C(=O)CSc1nc2ccccc2c(=O)n1CCC(=O)NCc1ccc(F)cc1 | – | inactive: -0.883%
CCOC(=O)Nc1nc2ccccc2s1 | active: 6.75 µM | –
CCN(CC(=O)Nc1c(F)cccc1F)C(=O)c1ccc2ccccc2n1 | – | inactive: 6.06%
Cc1c(Cc2ccccc2)c(=O)oc2c(C)c(OCC(=O)N[C@@H](Cc3ccccc3)C(=O)O)ccc12 | inconclusive: 30.1 µM [inhibitor, partial curve, poor fit] | –
CCOC(=O)C1(Cc2ccc(OC)cc2)CCN(S(C)(=O)=O)CC1 | inconclusive: 37.9 µM [inhibitor, partial curve, poor fit] | –
CCc1ccc(NC(=O)c2n[nH]c(=O)c3ccccc23)cc1 | inconclusive: 0.953 µM [inhibitor, full curve] | –
CN(C)C(=O)c1ccc(-c2cc(C(F)(F)F)nn2C)s1 | active: 15.1 µM | –
Cc1ccc(OCCn2cc(/C=N/NC(=O)c3ccncc3)c3ccccc32)cc1 | inconclusive: 26.9 µM [inhibitor, partial curve, poor fit] | –
Cc1ccc(NC(=O)COc2ccc(-c3nnco3)cc2)cc1S(=O)(=O)N1CCOCC1 | inconclusive: 26.9 µM [inhibitor, partial curve, poor fit] | –
COc1ccccc1C(=O)NC(=S)Nc1ccc(N2CCN(C(=O)c3ccco3)CC2)cc1 | – | inactive: -5.77%
Cc1cc(=O)[nH]c(N/N=C/c2cccs2)n1 | active: 16.9 µM | –
COc1ccc2nc(Nc3sc4c(c3C(N)=O)CCCC4)sc2c1 | active: 10.7 µM | –
Cc1cc(OCC(=O)NC(C)(C)C)ccc1Cl | inconclusive: 23.9 µM [inhibitor, partial curve] | –
N#C/C(=C/c1ccncc1)c1nc2ccccc2s1 | inconclusive: 8.49 µM [inhibitor, full curve] | –
Fc1ccc(-c2nn(-c3ccc(Cl)cc3)c3c2cnc2ccc(F)cc23)cc1 | – | inactive: -0.527%
COc1ccccc1NC(=O)c1ccccc1NC(=O)c1cc(Cl)ccc1NC(=O)c1ccco1 | – | inactive: 8.9%
Clc1ccc2nc(-c3cccc(SC4CCCCC4)c3)c(NCc3ccccc3)n2c1 | inconclusive: 37.9 µM [inhibitor, partial curve, poor fit] | –
Fc1cccc(CSc2ccc(-c3ccco3)nn2)c1 | active: 12 µM | –
O=C(N=C1N=C2C=CC=CN2Cc2ccccc21)c1ccc(S(=O)(=O)N2CCCC2)cc1 | inconclusive: 26.9 µM [inhibitor, single point] | –
Cc1ccc(NC(=O)c2ccc(NCC3CCCO3)c([N+](=O)[O-])c2)cc1Cl (centres undefined) | inconclusive: 30.1 µM [inhibitor, partial curve, poor fit] | –
COc1ccc(C(=O)Nc2nc3n(n2)C(c2ccc(Cl)cc2)C=C(c2ccccc2)N3)cc1OC (centres undefined) | inconclusive: 37.9 µM [inhibitor, partial curve, poor fit] | –
Cc1ccc(S(=O)(=O)c2nnn3c2nc(N2CCOCC2)c2sccc23)cc1C | – | inactive: 0.537%

Source: PubChem BioAssay AID588342 (National Center for Advancing Translational Sciences (NCATS), 2011)
